# According to PubChem BioAssay AID1508642 (National Center for Advancing Translational Sciences (NCATS), 2021):
# The campaign covered roughly 43,000 compounds. About 200 (0.47%) were called active. Inconclusive results (about 12%) are left out. Calls follow the shape of the dose curve; as a rule, active = well fitted cell-killing curve with a large enough effect; inconclusive = small, poorly fitted or top-dose-only effect, or effect the other way; inactive = flat fitted curve, though single readings scatter. The list shows a part of the results.
# Experiment: Cell viability qHTS assay in S16 Pmp22-F2sN cells; also: nearly all actives have a fitted effect of over 65% in size
# Conditions: S16 Pmp22-F2sN Schwann cells viability, CellTiter-Glo, 24 h; series mostly up to 57.5 µM; activity change, negative = cytotoxicity: at the top concentration
# Procedure, shortened: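 S16 Pmp22-F2sN Schwann cells (500-1,000/well) in phenol-red-free DMEM with 10% FBS received 23 nL compound by pin tool for 24 h at 37 °C. Viability was then read as CellTiter-Glo luminescence after 15 min at room temperature.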
# % is scaled to controls: 0 for no effect and ±100 for the full control effect; potency is read from the fitted curve at half-maximal effect.
Structure (SMILES),"activity change, negative = cytotoxicity",Potency
CCc1cccc(NC(=O)CN2Cc3ccccc3C2=O)c1,inactive: 4.57%,–
CCOc1ccc(C2CC(=O)Nc3cc4c(cc32)OCO4)cc1OC (stereo not given),inactive: -1.9%,–
COc1ccc(-c2cc(C)no2)cc1S(=O)(=O)NCc1cccs1,inactive: -19.9%,–
COc1cc(CNC(=O)C2CCCCN2S(=O)(=O)c2ccc(F)cc2)cc(OC)c1OC (stereo not given),inactive: 0.153%,–
CCOC(=O)c1c(S(=O)(=O)N2CCCC(C(=O)Nc3ccccn3)C2)c(C)n(C)c1C (stereo not given),inactive: -0.675%,–
Cc1nc(-c2cccc(NC(=O)Nc3ccccc3C(F)(F)F)c2)no1,inactive: 1.38%,–
CCc1ccc(-n2c(=O)c3sc4ccccc4c3n(CC(=O)N3CCCC3)c2=O)cc1,inactive: 9.02%,–
O=C(CSc1nc2ccsc2c(=O)n1Cc1ccccc1Cl)NCc1ccc(F)cc1,inactive: 7.98%,–
CCCOc1cccc(C2c3c(oc4ccccc4c3=O)C(=O)N2c2nncs2)c1 (stereo not given),inactive: 2.46%,–
Cc1ccc(C)c(Cn2c(CCCNC(=O)C3CCCCC3)nc3ccccc32)c1,inactive: -20.6%,–
Cc1nc(C)c(-c2ccc(SCC(=O)Nc3cccc(C)c3C)nn2)s1,inactive: -6.64%,–
Cc1ccc(CNC(=O)CSc2nc3ccsc3c(=O)n2-c2ccc(Br)cc2)cc1,inactive: 3.87%,–
Cn1c(C(=O)NCCc2ccccc2)cc2sc(Cl)cc21,inactive: -4.62%,–
CCc1ccc(C2C(C(=O)Nc3ccccc3OC)=C(C)Nc3nc(SCc4ccccc4)nn32)cc1 (stereo not given),inactive: 1.91%,–
CCOc1ccc(CNC(=O)CN2N=C(c3ccccc3)CCC2=O)cc1OC,inactive: 8.46%,–
Cc1ccc(-n2ncc(C(=O)NCCN3CCN(C)CC3)c2C2CCN(C(=O)OC(C)(C)C)CC2)cc1,inactive: 0.76%,–
CCOc1ccc(Nc2nc(C)c(NC(=O)c3cccc(F)c3)c(Nc3ccc(OCC)cc3)n2)cc1,inactive: 0.231%,–
CCC1Oc2ccc(C)cc2N(CC(=O)N2CCN(c3ccccc3OC)CC2)C1=O (stereo not given),inactive: 3.31%,–
Cc1noc(C)c1S(=O)(=O)N(CC(=O)NCCc1ccc(Cl)cc1)c1ccc(C(C)C)cc1,inactive: 0.201%,–
Cc1ccccc1C(=O)NNc1ncnc2c1cnn2-c1cccc(Cl)c1,inactive: 23.4%,–
Cc1ccc(Cn2c(CNC(=O)c3ccc(Cl)c([N+](=O)[O-])c3)nc3cccnc32)cc1,inactive: -0.704%,–
CCCc1ccc(NC(=O)C2CCCN(c3cnccn3)C2)cc1 (stereo not given),inactive: 0.0566%,–
CCc1ccc(NC(=O)C2CCN(S(=O)(=O)c3cccc(-c4noc(C)n4)c3)CC2)cc1,inactive: -6.19%,–
Cc1ccc(Cl)cc1N1CCN(S(=O)(=O)c2ccc3c(c2)C(C(C)C)C(=O)N3)CC1 (stereo not given),inactive: -18.2%,–

Structure (SMILES),"activity change, negative = cytotoxicity",Potency
O=C(COCc1cc(-c2cccs2)on1)NCc1ccc(F)cc1,inactive: 6.72%,–
O=C(Nc1ccc(Cl)cc1)c1ccc(-n2cnnc2)cc1,inactive: 2%,–
Cc1ccc(-n2ncc3c(N4CCN(Cc5ccccc5)CC4)ncnc32)cc1Cl,inactive: 0.927%,–
CC(C)c1ccc(NC(=O)C2CCCN2S(=O)(=O)c2ccc3nc(-c4ccccc4)[nH]c3c2)cc1 (stereo not given),inactive: -1.85%,–
O=S(=O)(c1ccc(-c2csc(=Nc3ccc(F)cc3)n2CCCCCCO)cc1)N1CCCC1,–,active: 17.8 µM
Cc1cccc(OCC(=O)Nc2ccc3c(c2)nc(CN2CCCCC2)n3C)c1,inactive: -23%,–
CCCc1nnc(NC(=O)Cc2coc3c(C)c(C)ccc23)s1,inactive: -2.86%,–
COc1ccc(C(=O)N(Cc2sccc2C)C2CCS(=O)(=O)C2)cc1 (stereo not given),inactive: -4.5%,–
COc1cc(NC(=O)Cn2ccc3ccccc3c2=O)cc(OC)c1OC,inactive: -0.686%,–
CCOCCCn1c(SCC(=O)Nc2ccc(CC)cc2)nc2ccccc2c1=O,inactive: -7.53%,–
Cc1ccc2c(c1)Cc1c(nc(-c3ccc(F)cc3)nc1SCC(=O)N1CCCCC1)O2,inactive: 3.54%,–
CCC(C)NC(=O)Cn1c(=O)n(-c2ccc(OC)c(OC)c2)c(=O)c2ccccc21 (stereo not given),inactive: 3.51%,–
CCOC(=O)C1CCN(C(=O)c2c(C)nn(-c3ccc(F)cc3)c2-n2cccc2)CC1,inactive: 29%,–
COc1ccc2cc(CCNS(=O)(=O)c3ccc(C)cc3)c(=O)[nH]c2c1,inactive: 9.72%,–
Cc1ccc(Nc2c(-c3cccnc3)nc3ccc(Cl)cn23)cc1,inactive: -2.27%,–
CCc1cccc(NC(c2ccccc2)c2nnc(-c3ccccc3F)o2)c1 (stereo not given),inactive: -24.1%,–
COc1ccc(C(=O)Nc2nnc(S(=O)(=O)N(C)c3ccc(C)cc3)s2)cc1,inactive: 2.72%,–
COc1ccc(C(=O)Nc2nnc(S(=O)(=O)N3CCN(c4ccc(F)cc4)CC3)s2)cc1,inactive: 6.79%,–
CCc1ccccc1Nc1ncnc2c1cnn2-c1ccc(C)cc1C,inactive: 24%,–
Cc1ccc(NC(=O)CSc2nc3c(sc4ccccc43)c(=O)n2CCCC(=O)NC2CCCC2)cc1C,inactive: 12.3%,–
COc1cccc(CNC(=O)c2cc3c(=O)n(Cc4cccnc4)ccc3nc2C)c1,inactive: -18.3%,–
CCOC(=O)c1c(C)[nH]c(C)c1S(=O)(=O)N1CCCC(C(=O)NCc2ccccc2Cl)C1 (stereo not given),inactive: -20%,–
COc1ccccc1CNC(=O)CN(c1ccccc1OC)S(C)(=O)=O,inactive: 0.564%,–
CCOc1ccc(-c2nonc2NC(=O)c2ccco2)cc1OCC,inactive: -3.43%,–

Structure (SMILES),"activity change, negative = cytotoxicity",Potency
CCOC(=O)c1ccc(NC(=O)CC2C(=O)N(c3cccc(C)c3)C(=O)N2CCOC)cc1 (stereo not given),inactive: -8.54%,–
Cc1ccc(OCC(=O)Nc2nnc(SCc3cc(=O)n4cccc(C)c4n3)s2)cc1,inactive: 2.69%,–
CCOc1cc(CNC(=O)NC2COc3ccccc3C2)cc(OCC)c1OCC (stereo not given),inactive: 1.04%,–
CCCCN(CC)CCCNC(=O)c1cc2c(=O)oc3ccc(C)cc3c2s1,inactive: 5.93%,–
CC1=C(C(=O)N2CCN(c3ccc(Cl)cc3)CC2)C2(CCC(C)CC2)OC1=O (stereo not given),inactive: -14.7%,–
O=C(COc1ccc(Cl)cc1)NCC(c1cccs1)S(=O)(=O)c1ccc(F)cc1 (stereo not given),inactive: -0.301%,–
COc1ccc(-c2nc3sc(CCNC(=O)C(=O)Nc4ccc(C)c(C)c4)c(C)n3n2)cc1,inactive: -0.66%,–
CCOC(=O)c1cc(-c2ccccc2)n(CC(=O)NCc2ccccc2)c1C,inactive: -4.78%,–
Cc1ccc(C)c(Cn2c(=O)n(CCCC(=O)NCCc3ccc(Cl)cc3)c(=O)c3ccccc32)c1,inactive: 19.8%,–
Cc1ccc(-c2cc3nccc(-c4cc([N+](=O)[O-])ccc4O)n3n2)cc1,inactive: 7.06%,–
CN(c1ccc(F)cc1)S(=O)(=O)N1CCCC(C(=O)NCCc2ccccc2)C1 (stereo not given),inactive: 12.6%,–
Cc1c(C(=O)OC2CCCCCC2)[nH]c2c1C(=O)CC(c1ccccc1)C2 (stereo not given),inactive: -3.31%,–
Cc1nc2ccc(S(=O)(=O)NC(CC(C)C)C(=O)NCc3ccc(Cl)cc3)cc2s1 (stereo not given),inactive: -0.466%,–
CCOc1ccc(S(=O)(=O)NCc2nc3cccnc3n2Cc2ccccc2OC)cc1,inactive: 0.0615%,–
CCOC(=O)C1CCN(C(=O)c2ccc3c(c2)sc2nc(-c4ccc(OC)cc4)cn23)CC1,inactive: -2.53%,–
CCCOc1ccc(-c2nc3ccc(Br)cc3c(=O)o2)cc1,inactive: 1.51%,–
CCCCNC(=O)CSc1nc2n[nH]c(C)c2c(=N)n1-c1cccc(C)c1,inactive: -10.1%,–
CCOC(=O)c1cc(S(=O)(=O)Nc2c(C)cc(C)cc2C)[nH]n1,inactive: -1.76%,–
Cc1ccc2nc(-c3ccc(NC(=O)COc4ccccc4C(C)(C)C)cc3)sc2c1,inactive: 5.94%,–
C=CCc1cccc2cc(-c3nc4ccc(C(=O)O)cc4[nH]3)c(=O)oc12,inactive: 6.83%,–
COc1cc(NC(=O)CN2CCCN(S(=O)(=O)c3ccc(F)cc3)CC2)cc(OC)c1,inactive: 9.37%,–
O=C(Nc1ccccc1Br)c1cc(S(=O)(=O)NC2CCCCC2)ccc1F,inactive: -4.06%,–
COc1cc(-c2noc(-c3ccc(NC4CCCC4)c([N+](=O)[O-])c3)n2)cc(OC)c1OC,inactive: 1.67%,–
CCOC(=O)CCCCN(Cc1ccccc1F)S(=O)(=O)c1ccc(F)c(C(=O)Nc2cc(Cl)cc(Cl)c2)c1,inactive: -22.5%,–

Structure (SMILES),"activity change, negative = cytotoxicity",Potency
O=C(NCc1ccc(F)cc1)c1nnc(Cc2cccc(F)c2)o1,inactive: -3.13%,–
COc1ccc(-c2noc(-c3cc(-c4ccc(F)cc4)n[nH]3)n2)cc1,inactive: 0.167%,–
CC(=O)NC(C)c1nc2ccccc2n1Cc1ccccc1Cl (stereo not given),inactive: 9.67%,–
CCOC(=O)N1CCN(c2ncc3c(n2)CC(c2ccc(Cl)cc2)CC3=O)CC1 (stereo not given),inactive: 8.22%,–
Cc1ccc(C)c(NC(=O)C2CCCN2S(=O)(=O)c2ccc3c(c2)n(C)c(=O)c(=O)n3C)c1 (stereo not given),inactive: 9.13%,–
COc1ccc(C2C(C(=O)Nc3cccnc3)=C(C)Nc3nc(SCc4ccccc4)nn32)cc1 (stereo not given),inactive: 2.47%,–
CCOCCCNC(=O)c1ccc(Cn2c(=O)c3cccn3c3cccnc32)cc1,inactive: 21.3%,–
Cc1c(C(=O)N2CCCC2)oc2c1-c1nn(CC(=O)NC(C)c3ccccc3)cc1CC2 (stereo not given),inactive: -6.29%,–
CCC(C(=O)Nc1cc(OC)ccc1OC)n1c(C)c2cnn(-c3ccccc3)c(=O)c2c1C (stereo not given),inactive: -3.55%,–
COc1ccc(-n2ccn(CC(=O)NCc3ccc(C)cc3)c(=O)c2=O)cc1OC,inactive: 0.464%,–
COc1ccc(CC(=O)NCC(c2cccs2)S(=O)(=O)c2ccc(Cl)cc2)cc1 (stereo not given),inactive: -3.37%,–
COc1ccccc1C(=O)c1cn(CC(=O)Nc2ccccc2F)c2nc(C)ccc2c1=O,inactive: -1.18%,–
Cc1ccc(C)c(N2CCN(C(=O)c3cc(S(=O)(=O)N4CCC(C)CC4)cn3C)CC2)c1,inactive: -4.12%,–
Cc1ccc2oc(C(=O)Nc3cccc(-c4nc5ccccc5s4)c3)c(C)c2c1,inactive: 26.6%,–
Cc1ccc(Nc2ncc(C(=O)N3CCN(c4cccc(Cl)c4)CC3)c3ccccc23)cc1Cl,inactive: 14.4%,–
COc1ccccc1Cn1cc(C(=O)c2ccc(F)cc2)c(=O)c2cc3c(cc21)OCO3,inactive: -0.969%,–
Cc1cccc(C)c1OCC(=O)Nc1c(C(=O)c2ccc(Br)cc2)oc2ccccc12,inactive: -5.56%,–
O=C(CN1C(=O)COc2ccc(S(=O)(=O)N3CCCCCC3)cc21)N1CCN(c2cccc(C(F)(F)F)c2)CC1,inactive: 1.37%,–
COc1ccc2c(CNCCc3cccs3)c(C(=O)O)n(Cc3ccccc3C)c2c1,inactive: 4.91%,–
Cc1cccc(N2CCN(C(=O)C3CCN(S(=O)(=O)c4c(C)noc4C)CC3)CC2)c1C,inactive: 1.91%,–
COc1ccc2oc(=O)c(-c3cn4c(n3)sc3cc(F)ccc34)cc2c1,inactive: 3.11%,–
COc1ccc(-c2noc(N3CCC(C(=O)N(C)c4cc(Cl)ccc4OC)CC3)n2)cc1,inactive: -20.2%,–
COc1ccc(CCNC(=O)CCc2cn(Cc3ccc(C)cc3)c3ccccc23)c(OC)c1OC,inactive: 1.07%,–
